This is one part of the list.
tested on: T1, C. trachomatis L2/434/Bu expressing GFP (CTL2-GFP); parameters: species or system HeLa; C. trachomatis total inclusion area by high-content imaging, normalised to DMSO; conditions: total inclusion area; 28.5 h, 10 µM; inhibitor
T1 construct: L2/434/Bu GFP intracellular growth in HeLa cells
In short: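 High-content images of fixed, Hoechst-stained infected cultures supply inclusion area and count (growth) plus nuclei number (viability), complementing bulk GFP/resorufin fluorescence. MIC determination is unchanged from the primary assay.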

Row | Compound | % of control remaining
1 | O=C(CSc1ccc2nnc(-c3ccccc3)n2n1)Nc1ccccc1 [CBK287513] | 108.608
2 | O=S(=O)(O)c1cccc2cccc(I)c12 [CBK301197N] | 75.3719
3 | CC(/C=C/c1ccccc1)=N\NC(=O)C(C)Oc1ccc(Br)cc1 (centres unmarked) [CBK261212] | 105.327
4 | O=C(O)c1cccc(NS(=O)(=O)c2c(Cl)cc(C(F)(F)F)cc2Cl)c1 [CBK155721] | 91.9145
5 | CCc1nc(CCn2ccc3nc(OC)c(C#N)cc3c2=O)no1 [CBK307668] | 66.7414
6 | CCn1cncc1C(=O)N1CCCC1(C)C(=O)NC1CCCC1 (centres unmarked) [CBK281376] | 104.063
7 | CN(C)CCCN1C(=O)C(O)=C(C(=O)c2ccc(F)cc2)C1c1cccnc1 (centres unmarked) [CBK264531] | 114.318
8 | CCc1cccc(NC(=O)c2cnc(-c3ccc(Cl)cc3)c(-c3ccc(OC)nc3)c2)n1 [CBK036671] | 124.155
9 | CCC1C(c2ccc(C)cc2)=CCC(C(=O)NCCCN(C)C)C1C (centres unmarked) [CBK016514] | 4.201
10 | Brc1ccc(OCc2ccccc2)c(CNCc2ccccn2)c1 [CBK268340C] | 81.0427
11 | Cc1cc(C)nc(NC(=O)COc2ccc([N+](=O)[O-])cc2)n1 [CBK265004] | 98.5923
12 | Cc1nccn1CCC1CCN(C(=O)c2cn3ccccc3n2)CC1 [CBK281868] | 99.3399
13 | O=C(CSCc1ccc(Br)cc1)N1CCN(Cc2ccc3c(c2)OCO3)CC1 [CBK268059] | 98.9342
14 | CC1CCc2c(sc3ncnc(OCC(=O)NC4CCCC4)c23)C1 (centres unmarked) [CBK305893] | 38.135
15 | O=C(O)COCC(=O)N1CCCC(c2nc(-c3ccccc3)c3ccccn23)C1 (centres unmarked) [CBK046806] | 123.883
16 | Cc1nn(C)cc1-c1cncn1CC(C)Oc1ccccc1Cl (centres unmarked) [CBK281739] | 93.4126
17 | O=[N+]([O-])c1ccccc1CN1CCN(C/C=C/c2ccccc2)CC1 [CBK261518] | 83.3734
18 | Cc1cn(S(=O)(=O)c2ccc(Cl)cc2)cn1 [CBK026492] | 118.245
19 | O=C(c1ccccc1)c1cc(Cl)ccc1-n1ccnc1 [CBK012383] | 97.3266
20 | O=C(CN1CCSCC1)NNC(=S)Nc1ccccc1 [CBK262445] | 105.944
21 | O=C(NCc1ccc(F)cc1)c1ncoc1-c1cccs1 [CBK283976] | 96.228
22 | Cc1cc(NC(=O)C(C)Oc2ccccc2)nc2c1c(=O)oc1ccccc12 (centres unmarked) [CBK291153] | 68.8524
23 | CCNc1cc(-c2cccc(N(C)C)c2)ncn1 [CBK090878] | 82.7983
24 | CC(C)(C)C1CCc2c(sc(NC(=O)CCC(=O)O)c2C(=O)Nc2ccccc2Cl)C1 (centres unmarked) [CBK264146] | 105.387
25 | c1ccc(N2CCN(c3cccc(-c4ccco4)n3)CC2)nc1 [CBK037662] | 91.7154
26 | COc1ccc(/C=N/Nc2ccc([N+](=O)[O-])cc2)c(C(=O)O)c1OC [CBK261984] | 100.966
27 | O=C(O)COc1ccc(NC(=O)C(c2ccccc2)c2ccccc2)cc1 [CBK264250] | 110.784

Row | Compound | % of control remaining
28 | Cc1ccc(C(=O)N2C3CCC2CC(O)(c2cccnc2F)C3)o1 (centres unmarked) [CBK284423] | 51.3239
29 | O=C(NC(Cc1ccsc1)c1nccs1)C1CCOCC1 (centres unmarked) [CBK282824] | 100.833
30 | CS(=O)(=O)N1CC=CC1C(=O)NCCCc1ccc(F)cc1 (centres unmarked) [CBK282631] | 121.084
31 | Cc1ccccc1COc1cccc2c1CCCC2 [CBK002562] | 32.8117
32 | CC(C)(C)C(=O)N1CCC(c2[nH]ncc2-c2ccncc2)CC1 [CBK284211] | 77.9918
33 | NC(=O)c1cnn(-c2cc(Oc3ccccc3)ncn2)c1N [CBK098664] | 88.3023
34 | c1ccc2c(-c3cn4ccnc4c(NC4CCOCC4)n3)cccc2c1 [CBK038047] | 136.458
35 | Cc1ccc(-c2nn(-c3cc(N4CCN(CCO)CC4)ccc3[N+](=O)[O-])c(=O)c3ccccc23)cc1C [CBK263713] | 84.529
36 | CC1OC(n2ccc(=S)[nH]c2=O)C(O)C1O (centres unmarked) [CBK012231] | 64.4354
37 | Cc1nonc1NC(=O)Nc1ccncc1 [CBK260982] | 85.7634
38 | CC(NC(=O)c1ncoc1-c1ccc(F)cc1)c1ccccn1 (centres unmarked) [CBK283846] | 79.6611
39 | CC(C)(C)SCCNc1nc(Cl)nc(N2CCSCC2)n1 [CBK018768] | 80.5013
40 | Cc1ccc2ccccc2c1Cn1cc(-c2ccc([N+](=O)[O-])cc2)nc1SCC(=O)NC(C)(C)C [CBK264493] | 87.9099
41 | COc1ccc(S(=O)(=O)NCCc2ccc(S(N)(=O)=O)cc2)cc1[N+](=O)[O-] [CBK267598] | 111.453
42 | Cc1nnnn1-c1cc(NC(=O)NCCc2ccnn2C)ccc1F [CBK306428] | 132.853
43 | COC(=O)c1ccsc1NS(=O)(=O)c1ccc(C)c([N+](=O)[O-])c1 [CBK039061] | 132.067
44 | COC(=O)c1ccccc1NC(=O)CSc1nc(C)cc(C(F)(F)F)n1 [CBK268682] | 95.648
45 | O=C(Nc1ccc(Cl)cc1)N1CCN(CCCCc2ccc(F)cc2)CC1 [CBK017951C] | 25.5825
46 | C[C@]12CN(Cc3ccc(F)cc3)C[C@H]1NC(=O)c1ccccc1C2=O [CBK284728] | 98.7438
47 | CC1CCc2nc(NC(=O)CC3CCN(C(=O)Cc4ccccc4)CC3)sc2C1 (centres unmarked) [CBK286509] | 102.006
48 | COC(=O)c1csc2c1NC1(CCC1)[C@@H]1C[C@@H](O)[C@@H](O)[C@H]21 [CBK303255] | 114.544
49 | Nc1ncn(CC(O)CO)c2nc(N3CCOCC3)nc1-2 (centres unmarked) [CBK009231] | 102.621
50 | c1ccc2sc(CCSCCc3nc4ccccc4s3)nc2c1 [CBK261036] | 95.0937
51 | CNC(=O)CN1C(=O)CC2(C1=O)C(=O)N(CCOC)c1ccc(C)cc12 (centres unmarked) [CBK075401] | 102.356
52 | CC(=O)N1CCc2c([nH]c3ccccc23)C1CCN(C)Cc1ccc(F)cc1 (centres unmarked) [CBK066969] | 96.1056
53 | O=c1[nH]c2ncc(-c3cncc4ccccc34)nc2n1Cc1ccccc1 [CBK065113] | 80.2082
54 | O=C(OCCC1SC(NC2CC3C=CC2C3)=NC1=O)c1c(F)cccc1Cl (centres unmarked) [CBK200061T] | 0.3723

Row | Compound | % of control remaining
55 | CCn1c(SCC(=O)N2CCCC2)nc2cc(C)[nH]c2c1=O [CBK288027] | 94.3595
56 | O=C(CC1CCN(C(=O)Cc2ccccc2)CC1)NC1(c2ccccc2)CCCC1 [CBK285965] | 95.173
57 | O=C(NCCc1cccs1)Nc1ccccc1OC(F)(F)F [CBK044873] | 77.5749
58 | Cc1nn(CCC(=O)NC2CCOc3ccccc32)c(C)c1Cl (centres unmarked) [CBK281684] | 113.934
59 | Cc1nc(-c2ccccc2)sc1C(=O)C1=C(O)C(=O)N(CCN(C)C)C1c1ccccc1 (centres unmarked) [CBK266415] | 135.062
60 | CCN(CC)C(=O)CN(CCc1ccc(OC)c(OC)c1)C(=O)NCc1ccc(Cl)cc1 [CBK158742] | 66.9746
61 | CCOC(=O)c1cnn2c(O)cc(CN3CCCC3c3ccsc3)nc12 (centres unmarked) [CBK305647] | 99.9921
62 | CN(C)S(=O)(=O)c1ccc(NC(=O)c2ccc(-c3ccccc3)cc2)cc1 [CBK267322] | 105.182
63 | Nc1cccc(-c2nccnc2NCc2cccnc2)c1 [CBK089310] | 71.2751
64 | Cc1nc(C2CCN(C(=O)c3cscn3)CC2)c2sccn12 [CBK285240] | 68.6804
65 | CC(C)COc1ccc(-c2nonc2NC(=O)c2ccccc2F)cc1 [CBK299831] | 80.6476
66 | COCCc1noc(C(C)NC(=O)Cc2cccc(O)c2)n1 (centres unmarked) [CBK307493] | 60.225
67 | NC(=O)c1c(NC(=S)NC(=O)c2ccccc2Br)sc2c1CCC2 [CBK265543] | 101.527
68 | COC(=O)C(O)(CC(=O)Nc1ccc(C)c(F)c1)C(F)(F)F (centres unmarked) [CBK267440] | 93.1585
69 | O=C(O)CN1C(=O)/C(=C/C2=Cc3ccccc3OC2)SC1=S [CBK264787] | 114.266
70 | Cc1cc(OCC(=O)Nc2ccc(S(=O)(=O)N3CCOCC3)cc2)ccc1[N+](=O)[O-] [CBK268114] | 116.963
71 | O=c1cc(N2CCOCC2)cnn1CCCCOc1ccccc1 [CBK307327] | 12.8211
72 | Cc1ccc(-n2c(=O)[nH]c3c(C(N)=O)nc(-c4ccccc4)nc32)cc1C [CBK287718] | 51.0671
73 | CN1CCN(CC(=O)N/N=C/C2CC=CCC2)CC1 (centres unmarked) [CBK019340] | 87.0285
74 | CC1CCc2c(sc(NC(=S)NC(=O)c3ccc4c(c3)OCCO4)c2C(N)=O)C1 (centres unmarked) [CBK266370] | 134.326
75 | CCOC(=O)c1c(CN2CCCC2)nc2c3ccccc3ccn12 [CBK267521C] | 90.1995
76 | O=C(Nc1nc2c(F)cc(F)cc2s1)c1ccc(F)cc1 [CBK287617] | 95.588
77 | CCOC(=O)c1[nH]c2ccccc2c1NS(=O)(=O)c1ccc(NC(C)=O)cc1 [CBK047411] | 86.5421
78 | COC(=O)C(C)(C)C1c2cc(Br)ccc2OC(=O)C1C(=O)c1ccccc1 (centres unmarked) [CBK266690] | 110.061
79 | CC(=O)c1ccc(NC(=O)C(C)SCc2ccc(C)cc2)cc1 (centres unmarked) [CBK296616] | 53.9364
80 | O=C(Cc1ccc(F)cc1)N1CCC(c2cc3cnccc3[nH]2)CC1 [CBK283454] | 88.4193
